Here are results for one molecule from US20260116991A1.

Values joined by “and” are separate entries in the source; they are usually repeats but may differ in a detail not shown here. Equal entries are not always repeated.

Usually EC50 stands for the concentration giving half of the maximal effect.

Experiment [1] concerns the target monkey GPC3-His protein (monkey). As to the kind of experiment: ELISA, monkey GPC3-His coated. On the technique in general: In an ELISA, binding on a coated surface is turned into a signal by an enzyme label.
Experiment [2] concerns the target monkey GPC3 on HEK293T-monkey GPC3 cells (monkey). As to the kind of experiment: FACS on HEK293T-monkey GPC3 cells.

B1: T2-23 scFv-hFc (Fc fusion)
chain: QSALTQPPSASGSPGQSVTISCTGTSSDVGGYNYVSWYQQYPGKAPKLLIYGNSNRPSGVPDRFSGSKSGTSASLAITGLQAEDGADYYCQSYDSSLRVVFGGGTKVTVLGGGGGSGGGGSGGGGSQVQLQESGGGLVQPGRSLRLSCAASGFTFSSYAMHWVRQAPGKGLEWVSAISSSGRSTYYADSVEGRFTISRDNSKNTLYLQMNSLRAEDTAVYYCAKDRRGSHADALNVWGQGTLVTVSS[human IgG1 Fc with changes not shown]
Turning to B1, in experiment [1], the OD450 at 0.0001 nM worked out at 0.05 OD450, the OD450 at 0.001 nM was determined as 0.1 OD450, the OD450 at 0.01 nM came to 0.41 OD450 and the OD450 at 0.1 nM came out at 1.68 OD450. In experiment [1], this molecule came in with an OD450 at 1 nM of 2.19 OD450, an OD450 at 10 nM of 2.45 OD450 and an OD450 at 100 nM of 2.28 OD450. The EC50 in experiment [2] was 0.44 nM and 0.56 nM.
